Among all 150,000 compounds or so, about 540 (0.36%) showed an effect of 50% or more. This is one part of the list.

The subject of the experiment is Plasmodium falciparum. Put plainly: Primary screen in NF54 nanoGlo assay, in single point, at 2uM, 72h; a lower Z score goes with more inhibition. The class given is functional, Erythrocyte. The settings on record: timepoint 72 hour.
Usually % Inhibition stands for the drop in the measured response relative to a control, in per cent. Consider `COc1ccc(CCC(=O)N[C@H]2CC(=O)N(c3ccc4c(c3)OCCO4)C2)cc1`, for which the “% Inhibition” value is -15% and the Z score was 2.72.
Consider `COc1ccc(-c2nnc(C(C)=O)n2Nc2ccc(F)cc2)cc1`, for which the “% Inhibition” value is reported as -15% and the Z score amounted to 1.76.
Turning to `Oc1ccccc1-c1ccnc2c(-c3ccccc3)cnn12`, the “% Inhibition” value is 9% and the Z score is on record as -1.42.
On to `O=C(Cn1cnc2ccccc2c1=O)NC1CCCCCC1`, for which the “% Inhibition” value is reported as -1% and the Z score was 0.11.
For `C[C@@H](c1ccccc1)N(Cc1nc(C(=O)NCc2ccccc2)co1)Cc1ccccc1C(F)(F)F`, in that order: -2% and 0.47.
As to `CN(C)Cc1ccc(-c2cccc3cnccc23)nc1`, the “% Inhibition” value is listed as -4% and the Z score amounted to 0.73.
For the compound `OCC1CN(c2nc(-c3ccccc3)ns2)C1`, the “% Inhibition” value was -15% and the Z score is given as 1.4.
`CN(C)c1nc2c(s1)CN(c1ncnc3c1ncn3C)CC2`: the “% Inhibition” value is -11% and the Z score is 1.71.
On to `Cc1ccc(OCc2nnc(C3CC3)n2C)c(CO)n1`, for which the “% Inhibition” value is reported as -12% and the Z score is reported as 1.01.
As for `CCOc1ccc(N2C(=O)NC3c4ccccc4OC2(C)C3C(=O)Nc2ccc(C)cc2C)cc1` (stereo not given), the “% Inhibition” value is on record as -7% and the Z score turned out to be 1.08.
Consider `Cc1cccc(C)c1OCc1noc(-c2ccccc2C(F)(F)F)n1`, for which the “% Inhibition” value is -5% and the Z score was 0.58.
Turning to `CN1Cc2ccccc2C[C@H]1C(=O)NCCN1CCOC1=O`, the “% Inhibition” value is given as 11% and the Z score is listed as -1.38.
Take `C#CCCC1(CCC(=O)N2CCC(=O)N(C)c3ccccc32)N=N1`: the “% Inhibition” value was -3% and the Z score turned out to be 0.62.
For `Cc1c[nH]nc1CN[C@@H]1c2ccccc2CC12CCOCC2`, the “% Inhibition” value was -2% and the Z score is given as 0.36.
As for `CN1CCN(CCNCc2ccc(Br)cc2F)CC1`, the “% Inhibition” value is on record as -5% and the Z score is recorded as 0.85.
`Cc1noc(-c2cc(C)n(-c3ccccc3)n2)n1`: the “% Inhibition” value is given as -10% and the Z score worked out at 1.03.
Consider `O=C1NCCC[C@@H]1NCc1ccc(F)c(-c2cccs2)c1`, for which the “% Inhibition” value was -12% and the Z score is reported as 1.81.
The matching figures for `COc1cc(CN(C)CCC(=O)N2CCc3ccccc3C2)sn1`: 8% and -1.44.
In the case of `Cc1ccc(N=C(NOC(=O)c2ccccc2)c2nonc2N)c(C)c1`, the “% Inhibition” value is -7% and the Z score is given as 1.15.
As to `O=S(=O)(c1cc(-c2nnc(C3CC3)o2)cs1)N1CCOCC1`, the “% Inhibition” value is given as -7% and the Z score was 0.77.
As for `CN(C)c1ccc(-c2nc(-c3ccc4[nH]c(=O)[nH]c4c3)cs2)cc1`, the “% Inhibition” value is -5% and the Z score was determined as 0.7.
Consider `CCc1nc(-c2ccc(-c3noc(-c4ccc(C)s4)n3)cc2)cs1`, for which the “% Inhibition” value is listed as -15% and the Z score is on record as 1.56.
`COCCCNC(=O)[C@@H](C)C1CCN(C(=O)c2ccc3nc(-c4ccccc4)oc3c2)CC1`: the “% Inhibition” value is -11% and the Z score was 1.25.
`CC(C)C(=O)N1CCN(c2nc3c(s2)C[C@@H](C(=O)Nc2ccccc2)CC3)CC1`: the “% Inhibition” value turned out to be 28% and the Z score was -3.21.
Regarding `COc1ccc([C@@H]2CCCN2C(=O)CCC2CCCCC2)cc1OC`, the “% Inhibition” value is on record as -1% and the Z score is 0.06.
Turning to `CC(C)N1C(=O)C[C@H](Nc2ncc(Cl)cn2)C1=O`, the “% Inhibition” value is given as -3% and the Z score is on record as 0.56.
The matching figures for `CCc1nn(C)cc1-c1cccc(C(=O)N(C)Cc2ccc(OC)c(O)c2)c1`: -12% and 2.
`CCC(=O)Nc1cccc(-c2noc(C3CCN(C(=O)c4ccc5cc[nH]c5c4)CC3)n2)c1`: the “% Inhibition” value is -11% and the Z score is on record as 1.37.
For the compound `COC(=O)C1CC12CCN(CC(O)COc1ccccc1C#N)CC2` (stereo not given), the “% Inhibition” value is given as 1% and the Z score is on record as -0.21.
The matching figures for `O=C(O)[C@@H](c1ccsc1)N1CCC(c2nc3ccccc3s2)CC1`: -15% and 1.74.
For `CCn1cc(S(=O)(=O)N2CCC3(CCC(=O)N(C4CC4)C3)CC2)cn1`, in that order: -12% and 1.7.
The matching figures for `CNC(=O)c1ccccc1-c1csc2ccccc12`: -4% and 0.76.
On to `COc1ccc(C2C3CCCCC3(O)CCN2CC(=O)NCc2ccco2)c(OC)c1` (stereo not given), for which the “% Inhibition” value is -11% and the Z score stood at 0.94.
For the compound `O=C(Cn1cnc2ccccc21)N[C@H]1CCN(Cc2ccsc2)C1`, the “% Inhibition” value is given as -4% and the Z score was 0.56.
Regarding `CC1=CN2C(=O)[C@@](Cc3ccc(F)cc3)(NC(=O)c3ccccc3)N=C2C=C1`, the “% Inhibition” value is reported as -13% and the Z score is given as 2.52.
For `COc1ccc(C)cc1NC(=O)Cn1cncc(C(=O)NC2CC2)c1=O`, in that order: 1% and -0.16.
As for `CN(Cc1ccncc1Cl)[C@H]1CCN(CC(F)(F)F)C1=O`, the “% Inhibition” value was -13% and the Z score was determined as 1.27.
On to `COc1ccc(CNC(=O)CS(=O)(=O)C2CCCC2)cc1Br`, for which the “% Inhibition” value was -12% and the Z score is reported as 1.1.
Consider `C[C@H]1CN(c2cccc(Cl)c2)C(=O)CN1C(=O)CN1CCCC1=O`, for which the “% Inhibition” value is recorded as -9% and the Z score is listed as 1.54.
Take `COC(=O)c1ccc(N2C[C@@H](C(=O)OCC(=O)Nc3cc(C)on3)CC2=O)cc1`: the “% Inhibition” value is listed as 14% and the Z score is listed as -2.19.
For `Cc1cccc(Cl)c1CNC(=O)c1c(C)noc1-c1ccc(C(C)(C)C)cc1`, in that order: -21% and 2.04.
Regarding `NC(=O)c1ccsc1NC(=O)c1ccc2c(c1)CCCC2`, the “% Inhibition” value is on record as -9% and the Z score is 1.59.
For `CCn1nncc1C(=O)NCc1ccc([C@H](C)O)c(C)n1`, in that order: -5% and 0.94.
Take `N#Cc1cnc2c(F)cc(F)cc2c1NCCc1nccn1C(F)F`: the “% Inhibition” value is given as -17% and the Z score amounted to 1.6.
Turning to `Fc1ccc(Br)c(CNCCc2nnc[nH]2)c1`, the “% Inhibition” value stood at 0% and the Z score is -0.06.
The matching figures for `Cc1nc[nH]c1-c1nncn1-c1ccccc1`: 21% and -2.03.
The matching figures for `CCCc1nc(C)c(CNC(=O)Nc2cnns2)s1`: -8% and 0.91.
Consider `CC[C@]1(CO)CCCN(Cc2cc3ccccc3n2C)C1`, for which the “% Inhibition” value is given as 0% and the Z score is on record as 0.03.
On to `CCC1=C(c2ccc(C)cc2)S(=O)(=O)N=C1NCC(=O)NCc1ccccc1F`, for which the “% Inhibition” value was -1% and the Z score came out at 0.21.
Consider `O=C(NCCCOCC1CC1)N1CC2CCCC2C1` (stereo not given), for which the “% Inhibition” value is on record as -10% and the Z score was 1.84.
With `Cc1nc(N)nc(N2CC[C@H](c3ccccc3Cl)C2)c1CCC(=O)O`, the “% Inhibition” value is given as 6% and the Z score is given as -1.2.
On to `O=C(c1n[nH]c(=O)c2ccccc12)N1CCC(Cc2ccccc2)CC1`, for which the “% Inhibition” value is listed as -14% and the Z score turned out to be 1.41.
Turning to `Cc1onc(-c2ccccn2)c1C(=O)NC1CCCCC1`, the “% Inhibition” value is recorded as 12% and the Z score is -2.28.
For `OCCN(CCO)Cc1ccc(F)c(Br)c1`, in that order: -5% and 1.03.
For `COc1ccc(Cc2nc(-c3ccc(C)cc3)n[nH]c2=O)cc1OC`, in that order: 0% and -0.07.
Turning to `Cc1cc(-c2nc(-c3ccc(F)cc3)no2)c(C)n1CC(=O)NC1CCCC1`, the “% Inhibition” value was -3% and the Z score was determined as 0.68.
Turning to `CC(C)CC(OC(=O)CC1CCCO1)c1ccccn1` (stereo not given), the “% Inhibition” value amounted to 2% and the Z score is listed as -0.28.
Take `O=C(Cn1cnnn1)N1CCC(Oc2cncc(Cl)c2)CC1`: the “% Inhibition” value is -2% and the Z score is reported as 0.34.
For `CCC(C)(C)NS(=O)(=O)c1cccc(Br)c1`, the “% Inhibition” value is listed as 17% and the Z score is recorded as -2.
For `Cc1ccc(S(=O)(=O)CCCC(=O)N(CCN(C)C)c2nc3c(F)cccc3s2)cc1`, the “% Inhibition” value was -7% and the Z score was found to be 1.14.
On to `Cc1c(C(=O)N[C@H](C)C(F)(F)F)ccc2cnc(C3CC3)n12`, for which the “% Inhibition” value is given as -14% and the Z score turned out to be 2.
Regarding `CCCN(Cc1c[nH]nc1-c1ccc(F)cc1)Cc1nccn1C`, the “% Inhibition” value was -21% and the Z score is 1.89.
Regarding `CC(=O)N1CC2(CCN(CCOc3ccc(Cl)cc3)CC2)C[C@H]1C(=O)O`, the “% Inhibition” value is listed as -2% and the Z score was determined as 0.45.
On to `Cc1cc(C)cc(N2CCN(C(=O)c3[nH]c4ccc(C)cc4c3C)CC2=O)c1`, for which the “% Inhibition” value was -1% and the Z score is on record as 0.2.
On to `Cc1cccc(NS(=O)(=O)c2cc(-c3nc(C)cs3)sc2C)c1`, for which the “% Inhibition” value worked out at 5% and the Z score is -0.67.
Take `O=C(CCc1cc2n(n1)CCN(C(=O)c1ncccc1O)C2)N1CCOCC1`: the “% Inhibition” value is on record as -1% and the Z score is 0.22.
With `CC(=O)Nc1onc(C)c1-c1ccc(C)c(S(=O)(=O)NCc2ccc(Br)cc2)c1`, the “% Inhibition” value amounted to 14% and the Z score was -2.
As for `Cn1ncc2c(N3CC(=O)N(C4CC4)C3)ncnc21`, the “% Inhibition” value amounted to 38% and the Z score was -5.46.
With `CCc1cc(C#N)c(NC(=O)[C@@H](OC)C2CC2)s1`, the “% Inhibition” value is recorded as -5% and the Z score worked out at 0.78.
For `Cc1ccc(S(=O)(=O)NCC(=O)NCC(=O)N[C@H]2CCCc3ccccc32)cc1C`, the “% Inhibition” value was -12% and the Z score is given as 1.92.
The matching figures for `Cc1cc(NC(=O)[C@H]2CCCO2)nc(-c2ccccc2)n1`: -7% and 0.73.
On to `Nc1nc(N2CCCCCC2)ncc1S(=O)(=O)c1cccs1`, for which the “% Inhibition” value is recorded as -4% and the Z score is listed as 0.38.
Take `Cc1c(C(=O)N2CCCCC2)c(C(F)(F)F)nn1[C@H]1CCCN(C(C)C)C1`: the “% Inhibition” value is given as -4% and the Z score is 0.62.
`CC[C@@H](C(=O)NCCc1ccccc1)N1C(=O)CCn2nc(C)cc21`: the “% Inhibition” value is given as -2% and the Z score was found to be 0.18.
In the case of `COCCN1C(=O)NC2CC1(C)Oc1cc(Cl)ccc12` (stereo not given), the “% Inhibition” value is -10% and the Z score is 1.65.
`Cc1cc(C(=O)N2CCCN(CC(=O)N3CCCC3)CC2)ccc1F`: the “% Inhibition” value is given as -13% and the Z score stood at 1.88.
Turning to `CN1C(=O)c2cccnc2O[C@H]2CN(C(=O)C3CCCCC3)C[C@H]21`, the “% Inhibition” value is on record as -1% and the Z score is given as 0.11.
For `CC(C)(C)c1ccc(OCCNS(C)(=O)=O)cc1`, in that order: -6% and 0.92.
Consider `CC1(C)Cc2nc(C(C)(C)C)ncc2[C@@H](NS(=O)(=O)c2cccnc2)C1`, for which the “% Inhibition” value amounted to 17% and the Z score is -2.26.
As to `Cc1cc(S(=O)(=O)N(CC2CC2)c2ccccc2)cnc1N`, the “% Inhibition” value is on record as -8% and the Z score was 0.92.
As for `COc1ccc(-n2ncc3c(N)c4c(nc32)C[C@H](c2ccccc2)CC4=O)cc1`, the “% Inhibition” value is on record as -12% and the Z score worked out at 1.52.
Regarding `CC(C)C(C)(C)CN=C(N)N(C)C1CC1`, the “% Inhibition” value is -8% and the Z score is 0.79.
For `CCOc1ccc(CNC(=O)c2ccc(Oc3ccnc(-c4cccc(C)c4)n3)cc2)cc1OCC`, in that order: 4% and -0.54.
The matching figures for `COc1cccc(CNC(=O)c2ccc(NS(=O)(=O)c3ccc(-c4ccccc4C)cc3)cc2)c1`: -11% and 1.66.
Consider `CC(C)C(=O)NCCNC(=O)N1CCCC2CCCC21` (stereo not given), for which the “% Inhibition” value is recorded as -4% and the Z score is 0.49.

(Values after ChEMBL document CHEMBL4888484, “Replenishing the malaria drug discovery pipeline: Screening and hit evaluation of the MMV Hit Generation Library 1 (HGL1) against asexual blood stage Plasmodium falciparum ,using a nano luciferase reporter read-out” (2022).)
